Experimental data as given in PubChem BioAssay AID1768 (National Center for Advancing Translational Sciences (NCATS), 2009).
About 620 (0.23%) of roughly 270,000 compounds were called active. This list was built around the results that the source calls inconclusive (neither active nor inactive); the mix of calls is not that of the screen. Calls follow the shape of the dose curve; as a rule, active = well fitted inhibition curve with a large enough effect in the polarisation, with a control signal flat (not every such curve was filed as active); inconclusive = small, poorly fitted or top-dose-only effect, or effect the other way, or a change in a side signal; inactive = no such curve, though single readings can be large or run the other way; the % refers to the polarisation. Potencies beside an inconclusive call are fits to weak or partial responses and may not hold up. A note “side channel” means that the fit belongs to a control or component signal, not to the main read-out.

target: Menin (Homo sapiens) (UniProt O00255); test: qHTS Assay for Inhibitors Targeting the Menin-MLL Interaction in MLL Related Leukemias: Competition With Texas Red Labeled MLL-derived Mutant Peptide; conditions: fluorescence polarization; series mostly up to 61.6 µM
Potency is read from the fitted curve at half-maximal effect; tags tell the direction and shape of the fitted curve or compound fluorescence and quenching.

Chain of UniProt O00255 (O00255 whole entry, looked up): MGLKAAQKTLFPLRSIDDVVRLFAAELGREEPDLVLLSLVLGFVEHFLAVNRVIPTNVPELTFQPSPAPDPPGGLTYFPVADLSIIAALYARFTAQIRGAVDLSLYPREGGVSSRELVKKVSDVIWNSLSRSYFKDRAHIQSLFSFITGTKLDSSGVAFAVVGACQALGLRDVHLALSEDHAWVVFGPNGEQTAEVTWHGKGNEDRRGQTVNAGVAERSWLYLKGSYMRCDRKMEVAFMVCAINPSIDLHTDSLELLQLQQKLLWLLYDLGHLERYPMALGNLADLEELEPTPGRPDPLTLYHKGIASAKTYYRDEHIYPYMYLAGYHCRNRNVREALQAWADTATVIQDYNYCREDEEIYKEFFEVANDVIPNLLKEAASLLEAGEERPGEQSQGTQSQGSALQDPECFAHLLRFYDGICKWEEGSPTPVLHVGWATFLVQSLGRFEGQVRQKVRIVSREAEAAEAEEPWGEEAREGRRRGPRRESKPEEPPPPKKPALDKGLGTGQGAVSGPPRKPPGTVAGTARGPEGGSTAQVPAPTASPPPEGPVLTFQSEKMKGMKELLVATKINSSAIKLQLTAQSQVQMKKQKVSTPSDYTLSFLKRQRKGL

Potency, inactive:
CCSc1ncnc2sc3c(c12)CCC3, CCc1ccc2nc3nc(C)cc(C)c3c(N)c2c1, CC(C)N1C(=O)S/C(=C/c2ccc(Sc3nc4ccccc4[nH]3)o2)C1=O, CCN(CC)c1ccc2cc(-c3nc(-c4ccc(OC)cc4)cs3)c(=O)oc2c1

Potency, inconclusive:
Cc1cccc(C2=NN(c3ccccc3)[C@H](CO)[C@H]2c2ccc(F)cc2)c1 22.4 µM [quencher, partial curve], Nc1ccc(-c2cnc(-c3ccc(N)cc3)nc2)cc1 39.8 µM [quencher, side channel, single point], Cc1ccc(-c2csc(NC(=O)c3ccccc3F)c2C(=O)O)cc1 22.4 µM [quencher, side channel, partial curve], CCc1nnc(NS(=O)(=O)c2ccc(Nc3ccc([N+](=O)[O-])c4nonc34)cc2)s1 28.2 µM [quencher, side channel, partial curve], O=C(NC(=S)Nc1ccc(S(=O)(=O)Nc2nccs2)cc1)c1cccc(F)c1 35.5 µM [inhibitor, single point], Cc1ccc(S(=O)(=O)N2CCOC2CNC(=O)C(=O)NCCc2c[nH]c3ccccc23)cc1 (configuration not stated) 25.1 µM [quencher, side channel, single point], CN(C)c1nc(OCCNC(=O)Nc2ccc(Cl)cc2)nc(N(C)C)n1 8.91 µM [inhibitor, partial curve], Cc1ccc(NCc2nnc(SCC(=O)O)n2-c2ccc(C)cc2)cc1 8.91 µM [fluorescent, side channel, full curve], CN(Cc1ccccc1)C(=O)CN1CCN(C(c2ccccc2)c2ccccc2)CC1 7.94 µM [fluorescent, side channel, partial curve], Cc1cc(C)c(C(=O)COC(=O)c2cc([N+](=O)[O-])ccc2NCCO)cc1C 22.4 µM [quencher, side channel, single point], COc1ccc2oc(=O)c(-c3csc(Nc4ccc(O)cc4)n3)cc2c1 14.1 µM [quencher, side channel, partial curve], O=C(Nc1cc(Cl)ccc1Cl)C1CC(=O)N(c2ccccc2)C1 (configuration not stated) 39.8 µM [inhibitor, single point], CCOC(=O)c1ccccc1N1C(=O)C2Sc3[nH]c(=O)sc3C(/C=C/c3ccccc3)C2C1=O (configuration not stated) 14.1 µM [quencher, side channel, partial curve], O=C(NC1CC2CCC(C1)N2Cc1ccccc1)c1cccc(F)c1 (configuration not stated) 8.91 µM [quencher, side channel, single point], CC(C)c1ccc(OCC(=O)Nc2cccc(C(=O)Nc3ccccc3C(=O)O)c2)cc1 12.6 µM [quencher, side channel, partial curve], Cn1c(=O)c2c3c(sc2n2cnnc12)CCC3 35.5 µM [inhibitor, partial curve], Nc1cc(=O)[nH]c(=O)n1CC1CC1 0.708 µM [inhibitor, full curve], CC(C)OCCCNC(=S)NNC(=O)c1ccc(Cl)c(Cl)c1 3.16 µM [inhibitor, partial curve], CS(=O)(=O)Nc1ccc(C(=O)Nc2ccc(S(=O)(=O)N3CCCC3)cc2)cc1 14.1 µM [quencher, side channel, partial curve], Cc1ccc(NC(=O)c2sc3nc4c(c(-c5ccco5)c3c2N)CCC4)cc1 12.6 µM [quencher, side channel, partial curve], COc1cc2c(cc1OC)C(c1ccccc1F)NCC2 (configuration not stated) 3.55 µM [quencher, side channel, single point], COc1ccccc1N1CCN(c2ncnc3sc(C)c(-c4ccccc4)c23)CC1 3.55 µM [fluorescent, side channel, full curve], CCC(C)NC(=S)N(Cc1cc2cc(C)ccc2n2nnnc12)CC(C)(C)NC(C)C (configuration not stated) 14.1 µM [fluorescent, side channel, partial curve], CCc1nnc(NC(=O)CSc2nc(-c3ccccc3)c(-c3ccccc3)o2)s1 35.5 µM [inhibitor, single point], CN(C)c1ccc(/C=C(\C#N)C(=O)NCc2ccco2)cc1 35.5 µM [fluorescent, side channel, single point], Cc1cc(C(=O)OCC(=O)N2CCc3ccccc32)c(C)o1 39.8 µM [inhibitor, single point], CC(C)Cc1nc(N2CCCCC2)c(C#N)c2c1CCC2 7.94 µM [fluorescent, side channel, full curve, poor fit], O=C(COC(=O)c1n[nH]c2ccccc12)Nc1ccc([N+](=O)[O-])cc1 39.8 µM [quencher, side channel, partial curve, poor fit], CS(=O)(=O)N1Cc2ccccc2CC1C(=O)OCC(=O)Nc1ccc2ccccc2c1 (configuration not stated) 14.1 µM [quencher, side channel, partial curve], Cn1c(CC(=O)Nc2ccc(F)cc2)c(Sc2ccccc2)c2ccccc21 31.6 µM [inhibitor, single point], COc1ccc(N/N=C(\C=N\O)C(=O)c2ccc(OC)cc2)cc1 25.1 µM [quencher, side channel, partial curve], CCN(CC)c1ccc(CN2CCCCCC2)cc1 10 µM [inhibitor, partial curve, poor fit], O=C(COc1cc(Cl)c(Cl)cc1Cl)N1CCN(c2ccccn2)CC1 7.94 µM [fluorescent, side channel, full curve]
